Reference: ChEMBL document CHEMBL4888484, “Replenishing the malaria drug discovery pipeline: Screening and hit evaluation of the MMV Hit Generation Library 1 (HGL1) against asexual blood stage Plasmodium falciparum ,using a nano luciferase reporter read-out” (2022)
About 540 (0.36%) of roughly 150,000 compounds showed an effect of 50% or more. This is one part of the list.

test system: Plasmodium falciparum; assay: Primary screen in NF54 nanoGlo assay, in single point, at 2uM, 72h; a lower Z score goes with more inhibition; type: functional, Erythrocyte; details: timepoint 72 hour

Row | SMILES | % Inhibition [%] | Z score
1 | Cc1cccc(CN2CCN(C(=O)c3cc(C)n[nH]3)[C@@H](C)C2=O)c1 | -9 | 1.2
2 | C#CCN(Cc1cc(OC)ccc1OC[C@@H](O)CN1CCC(O)CC1)C1CCCCC1 | 7 | -0.78
3 | CC[C@H](Nc1ccc2oc(N(C)C)nc2c1)C(=O)OC | -11 | 1.1
4 | CCN(CC)[C@H]1CCOC2(CCN(C(=O)CCc3ccc(OC)cc3)CC2)C1 | -8 | 1.31
5 | CC(C)(C)Cc1ncc(C(=O)N[C@H]2CCO[C@@H]2c2cc[nH]n2)s1 | -7 | 1.16
6 | CN(C)c1cccc(C(=O)Nc2cccc(-c3nnc4n3CCCC4)c2)c1 | -8 | 1.39
7 | CCCC12CCCN1C(=O)N(C1CCN(C(=O)OCC)C1)C2=O (stereo not drawn) | -7 | 1.1
8 | COCCC1(CNC(=O)Nc2cc(N(C)C)n3nc(C)cc3n2)CC1 | 6 | -0.81
9 | O=C1CNCCN1Cc1ccc(Cl)cc1 | 1 | -0.15
10 | COC(=O)c1nc(NC(=O)[C@H]2CC(=O)OC2(C)C)sc1C | -13 | 1.95
11 | C#CCN(C)[C@@H](CO)c1ccc(OC)cc1 | -5 | 0.73
12 | COC(=O)C(C)(C)CNC(=O)N1CCC[C@H](C)C1 | -10 | 1.48
13 | COc1ccc(OC)c(CNc2nc(-c3ccccc3)no2)c1 | -25 | 2.18
14 | Cc1csc([C@@H](NS(=O)(=O)c2ccccc2Cl)C2CC2)n1 | 6 | -1.09
15 | COCCC1(CNc2ccc(N3CCCS3(=O)=O)cn2)CC1 | -6 | 0.86
16 | CCc1csc(NC2CCS(=O)(=O)CC2)n1 | -6 | 1.2
17 | CCc1nnc(NC(=O)CN(CCOC)C(=O)OC(C)(C)C)s1 | -7 | 1.21
18 | CCN1CC[C@H](NC(=O)N(Cc2ccc(OC)cc2OC)C2CCCC2)C1 | -2 | 0.31
19 | Cn1nccc1-c1cccc(-c2noc(-c3ccccn3)n2)c1 | -10 | 1.79
20 | COCCCNC(=O)C1CN(S(=O)(=O)C2CC2)C1 | -10 | 1.53
21 | COc1ccc(C(c2c(C)nn(C)c2Nc2ccccc2)c2c(C)nn(C)c2Nc2ccccc2)cc1 | 19 | -2.93
22 | Cc1ccc(Br)c2[nH]c(C(=O)N[C@@H]3C[C@H]4CC[C@@H]3O4)cc12 | 2 | -0.32
23 | Cc1c(Cl)cccc1NC(=O)N1CCN(c2ccc(-c3noc(C(C)C)n3)cc2)CC1 | -4 | 0.87
24 | Clc1ccc([C@@H]2CN(c3nccc4[nH]cnc34)CCO2)cc1 | -8 | 1.34
25 | Cc1cnn([C@H]2CCCN(Cc3cc4ccccc4[nH]c3=O)C2)c1 | -6 | 0.74
26 | NS(=O)(=O)c1ccc(C(=O)NC[C@H]2CCCOC2)cc1Cl | -8 | 0.87
27 | O=C(CNC(=O)N1C[C@H]2CCCC[C@H]2C1)N1CCN(c2ccccc2)CC1 | -15 | 1.5

Row | SMILES | % Inhibition [%] | Z score
28 | CCc1nc(CNC(=O)Cc2sc(N)nc2C)cs1 | -12 | 1.56
29 | CCN1C(=O)C2C3CC4C(OC1(C(C)C)C42)C3O (stereo not drawn) | 3 | -0.46
30 | CC(C)[C@@H]1CN(c2nnc(-c3ccc(F)cc3Br)n2C)CCO1 | -10 | 1.76
31 | Cc1cc(C(=O)CN(Cc2cccc(Cl)c2)C(C)C)c(C)n1[C@H]1CCS(=O)(=O)C1 | 0 | -0.07
32 | CCCc1nc(N2CCN(C(=O)[C@H](CC)c3ccccc3)CC2)c2c(C)nn(-c3ccc(F)cc3)c2n1 | -3 | 0.49
33 | COCC1(CNc2ncc(S(=O)(=O)NCCO)cc2C(F)(F)F)CCC1 | -8 | 1.07
34 | CN(CC#N)Cc1cc(Br)ccc1Cl | -15 | 1.99
35 | COC[C@H]1CCCN(C(=O)Nc2cnn(CC(F)(F)F)c2)C1 | 7 | -1.04
36 | Fc1ccc(OC(F)F)cc1-c1noc([C@@H]2COCCN2C2CCCC2)n1 | -10 | 1.28
37 | CCOc1ccc(Cc2noc3c2C(=O)C[C@@H](c2ccccc2)C3)cc1OCC | -6 | 0.83
38 | CC(C)Cc1n[nH]c(NC(=O)CCCc2nnc3ccccn23)n1 | 28 | -3.14
39 | CCS(=O)(=O)c1ccc2oc(-c3cc(C)ccc3OS(=O)(=O)c3ccc(C)cc3)nc2c1 | -8 | 1.57
40 | Cc1nc(C)c(C(=O)N(Cc2ccncc2)C2CC2)o1 | -3 | 0.41
41 | CCc1nccn1CC(=O)N1CCC[C@@]2(CCC(=O)N(CC3CC3)C2)C1 | 2 | -0.34
42 | N#Cc1ccc(Cl)cc1NC(=O)C(=O)N1CCN(c2ccccc2F)CC1 | 10 | -1.64
43 | COc1cc(CC2(CCC(=O)N3CCCC(C)C3)CCC(=O)N2)ccc1F (stereo not drawn) | -1 | 0.23
44 | CCCC(C)C1CCCN1c1cc(-n2cccn2)nc(N)n1 (stereo not drawn) | 1 | -0.2
45 | CCOc1ccc2nc(N3CCCCCC3)sc2c1 | -10 | 1.3
46 | O=S(=O)(c1cccc2nsnc12)N1C[C@H](O)[C@@H](F)C1 | 5 | -0.89
47 | CC(C)N1CCN(C(=O)c2cc3[nH]cnc3cc2F)CC1 | -8 | 1.11
48 | CC(C)(C)NC(=O)N1CCNC(=O)C1(C)C | -8 | 1.11
49 | COc1ccc(F)c(CN2CCC[C@@](CO)(CC3CC3)C2)c1 | -6 | 1.08
50 | O=C(N[C@H]1C[C@H]2C(=O)N3CCC[C@@H]3C(=O)N2C1)c1ccc(C(F)(F)F)cc1 | -21 | 2.49
51 | CN(C)C(=O)c1ccc(=O)n(Cc2cc(F)ccc2OC(F)F)c1 | 4 | -0.77
52 | Brc1ccc(-c2csc(Cc3nc(-c4ccc(Br)cc4)cs3)n2)cc1 | -3 | 0.3
53 | Cc1cnc(C)c(N2CCC(n3c(=O)[nH]c4ccccc43)CC2)n1 | -6 | 1.15
54 | O=C(N[C@H]1C[C@@H](O)C1)c1cc2c(F)c(Br)ccc2[nH]1 | -8 | 0.99
